# The other results are listed elsewhere or left out.
# Test system: T1, C. trachomatis L2/434/Bu expressing GFP (CTL2-GFP)
# T1 construct: L2/434/Bu GFP intracellular growth in HeLa cells
# Set-up: species or system HeLa; C. trachomatis total inclusion area by high-content imaging, normalised to DMSO
# Conditions: total inclusion area; 28.5 h, 10 µM; inhibitor
# In short: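 Post-fluorescence-read fixation, DNA staining with Hoechst and high-content imaging; GFP inclusion area and number per well, and nuclei counts, used as proxies for bacterial growth and host viability.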
row,Compound,% of control remaining
1,NC(=O)c1cccc(-n2cc(-c3ccsc3)nn2)c1 [CBK113076],108.741
2,C=CCn1c(SCC(=O)Nc2nc3ccc(OCC)cc3s2)nc2cc(C(=O)O)ccc2c1=O [CBK297520],56.0912
3,C=C(C)Cn1c(-c2ccccc2C)nnc1S(=O)(=O)CC(C)C [CBK200074],120.689
4,CCCC12CN3CC(CCC)(CN(C1)C3c1ccc([N+](=O)[O-])cc1)C2=O (stereo not drawn) [CBK264481],114.43
5,CN(Cc1ccc(-c2ccc(S(C)(=O)=O)cc2)nc1)C1CCN(C(=O)Cc2cccc(C(F)(F)F)c2)CC1 [CBK164104T],57.8616
6,Cc1nn(C)c(N2CCNCC2)c1NC(=O)C1=CC(=O)CC(C)(C)O1 [CBK050362T],88.1185
7,CN(C(=O)CCC(=O)O)c1ccccc1C(=O)O [CBK261429],104.492
8,O=C(Cc1ccccc1F)N1CCC(c2n[nH]c3ncccc23)CC1 [CBK284908],100.335
9,O=C1NC2(CCN(C(=O)c3ccco3)CC2)Nc2ccccc21 [CBK284762],60.9532
10,CC(C)Nc1cc(SC2CCCCC2)ncn1 [CBK107163],92.5903
11,O=C(NCC(c1ccco1)N1CCCC1)N1CCc2ccccc2C1 (stereo not drawn) [CBK304392],65.9877
12,COc1cc(C(=O)Nc2ncccc2OCCCC#N)ccc1C [CBK304568],78.5503
13,Nc1nnc(C(=O)c2cc(Br)ccc2N)s1 [CBK009811],66.2925
14,Cc1ccc(N(Cc2ccco2)C(=O)c2cccc(S(=O)(=O)N(C)C)c2)cc1 [CBK267578],90.4809
15,COc1ccc(-n2nc3ccc(NC(=O)c4sc5ccccc5c4Cl)cc3n2)cc1Cl [CBK264633],102.913
16,O=C(CN1C(=O)N2CCN=C2c2ccccc21)N1CCCC1 [CBK283945],105.536
17,O=c1[nH]c(=O)c2cc(S(=O)(=O)N3CCCC(c4ccccc4)C3)ccc2[nH]1 (stereo not drawn) [CBK286381],95.3356
18,Nc1ncnc2c1nc1n2[C@@H]2O[C@@H]([C@H](O)C2O)[C@H]1O (stereo partly drawn) [CBK201305],118.483
19,CC1(c2ccccc2)CC(C)(C)N(C(=O)CSc2nc3ccccc3o2)c2ccccc21 (stereo not drawn) [CBK262466],91.5161
20,Fc1cccc(N2CCN(Cc3ccccc3)CC2)n1 [CBK000144],95.6726
21,NS(=O)(=O)c1ccc(CCNC(=O)c2ccc(-c3ccccc3)nc2NCCc2ccccn2)cc1 [CBK076616],149.637
22,CC1=CC(C)(C)N(CC(=O)c2ccc([N+](=O)[O-])cc2)c2c(C)cccc21 [CBK261652],83.3301
23,CSc1nc2ccc3nc(NC(C)=O)sc3c2s1 [CBK287567],127.844
24,CCCOc1ccc(O)cc1 [CBK122802],119.515
25,O=c1cc(N2CCCC2)cnn1Cc1cscn1 [CBK304635],43.2131
26,Sc1nnc(COc2ccccc2)n1/N=C/c1ccncc1 [CBK265360],106.197

row,Compound,% of control remaining
1,O=C(c1cc(S(=O)(=O)NCc2ccco2)c(Cl)cc1Cl)N1CCCC1 [CBK306076],40.9797
2,N=C1NC(=O)/C(=C/c2cccc(OCc3cccc4ccccc34)c2)S1 [CBK263610],109.85
3,CC(C)(C)c1ccnc(N[C@H]2CO[C@H]3[C@@H]2OC[C@@H]3NS(=O)(=O)Cc2ccccc2)n1 [CBK289521],91.0095
4,OC[C@H]1CCCN1c1nc(Br)cn2c(-c3ccccn3)cnc12 [CBK094394],91.3396
5,CSCCCNC(=O)c1ccccc1Nc1cccc(C(F)(F)F)c1 [CBK149551],22.8983
6,CN(Cc1ccccc1)S(=O)(=O)c1ccc2c(c1)n(C)c(=O)n2C [CBK266644],114.4
7,CN1CCN(c2nc(-c3ccccc3)cc(-c3ccc(Br)cc3)n2)CC1 [CBK262774],104.22
8,Cc1nc2c(c(=O)[nH]1)CCN(Cc1[nH]c3ccc(F)cc3c1C)C2 [CBK283996],97.2375
9,O=c1c(-c2ccco2)[n+]([O-])c2ccccc2n1OCc1ccccn1 [CBK266570],109.879
10,CC1(C)CC(=O)C2=C(C1)c1onc(N)c1C2Cc1ccccc1 (stereo not drawn) [CBK269206],100.629
11,O=C(Cn1cnc2c(Cl)cc(Cl)cc2c1=O)N1CCCCCC1 [CBK305874],52.736
12,CSc1cc(-c2ccc(Cl)cc2)c(C(=O)O)s1 [CBK126740],73.1249
13,Cc1ccn(CCNC(=O)c2cc3ccc(F)cc3[nH]2)n1 [CBK283209],109.47
14,COC(=O)c1c(NC(=S)NNC(=O)c2nn(C)c(C)c2Br)sc2c1CCC(C)C2 (stereo not drawn) [CBK267052],109.56
15,O=C(CN1CCCCC1)NN(Cc1ccccc1)c1ccccc1 [CBK261521G],100.854
16,Cc1cccc(C)c1NC(=O)CN(Cc1ccccc1)Cc1cc2ccc(C)c(C)c2[nH]c1=O [CBK122696T],61.3001
17,CC(Sc1ccc(Cl)cc1)C(=O)NCCN1CCOCC1 (stereo not drawn) [CBK269316],107.264
18,CC1CCc2nc3ncn(CC(=O)NC4CC4)c(=O)c3cc2C1 (stereo not drawn) [CBK294401],107.977
19,COc1ccc(Oc2nccc(N3CCCN(CCc4ccc5ccccc5c4)CC3)n2)cc1OC [CBK084164],96.427
20,COc1ccc(-c2cn(-c3ccc4c(c3)CCO4)nn2)cc1 [CBK113027],110.816
21,NC(=O)CN(Cc1ccc(Cl)cc1)S(=O)(=O)c1ccccc1 [CBK264149],98.8423
22,O=C(Nc1ccncc1)c1cccn(Cc2ccccc2F)c1=O [CBK287738],55.8837
23,O=C(COc1ccccc1)Nc1nccs1 [CBK058018],93.7132
24,Cc1cccnc1NC(=S)NC(=O)c1ccc([N+](=O)[O-])cc1 [CBK263931],107.005
25,CC[C@H]1CN(C(=O)c2cccnc2)CC[C@H]1CC(=O)NCc1ccc2c(c1)OCO2 [CBK288771],115.187
